According to publication PMC7819943, “Rice protein-binding microarrays: a tool to detect cis-acting elements near promoter regions in rice”:
The list shows a part of the results.

Molecular target: T1, OsWOX13 (Oryza sativa, UniProt Q5QMM3 1-267)
T1 sequence: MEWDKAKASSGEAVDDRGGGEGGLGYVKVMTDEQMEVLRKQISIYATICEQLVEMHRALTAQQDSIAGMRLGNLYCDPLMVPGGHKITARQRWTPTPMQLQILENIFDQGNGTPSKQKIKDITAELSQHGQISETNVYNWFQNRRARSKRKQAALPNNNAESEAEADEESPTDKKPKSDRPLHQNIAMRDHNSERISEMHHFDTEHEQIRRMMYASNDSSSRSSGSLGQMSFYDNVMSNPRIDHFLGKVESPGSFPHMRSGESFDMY
Test: protein-binding microarray (RPBM); PBS, 2% BSA, 51.3 ng/ul salmon testes DNA, 50 uM zinc acetate, 200 nM TF, 25 C, 1 h; high values mean tight binding
Conditions: protein: recombinant; tags: N-terminal polyhistidine and DsRed monomer fusion (pET32a); label: CyDye5-dUTP incorporated in the synthesized complementary strand; 3' TTTTT single-stranded linker to array surface; dsDNA, one strand shown
In short: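 The binding signal is fluorescence intensity per array feature (arbitrary units). Readings came from an Axon 4000B scanner after a washed, 2% BSA-blocked, double-stranded custom Agilent array had been incubated for 1 h at 25 °C with 200 nM protein and 50 µM zinc acetate. The protein was a Ni–NTA-purified transcription factor fused N-terminally to polyhistidine and DsRed, expressed in E. coli BL21-CodonPlus.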

| Sequence | binding signal |
| --- | --- |
| GAAAATAGACCTAATCAAATGTAAAACAGTGGTAAATGTACGGAGTCACCTAGTGCAG | 4980 fluorescence intensity (a.u.) |
| GGCGATTGAATTGGATGCCTTGAATCTCTCCCAAGGGGTCCGGAGTCACCTAGTGCAG | 8250 fluorescence intensity (a.u.) |
| AAACGATAATTATGTTCAATTATAATAAAGAGAGGAGACGCGGAGTCACCTAGTGCAG | 34200 fluorescence intensity (a.u.) |
| GCCTGATTGTCGAATCCTGTTCTGCATGTGCCACTGCAGACGGAGTCACCTAGTGCAG | 41700 fluorescence intensity (a.u.) |
| ATTTAATTATTTCACTAATATAATAATGCCAAAATTTTGACGGAGTCACCTAGTGCAG | 21400 fluorescence intensity (a.u.) |
| GGCTGAGGGAGGTAATTTAGTTAGCAACAAGAGATAAGGGCGGAGTCACCTAGTGCAG | 7600 fluorescence intensity (a.u.) |
| AGCCGATTGGTTGTTCATTGCCTTGCAGAAAGTCAGAAGCCGGAGTCACCTAGTGCAG | 6560 fluorescence intensity (a.u.) |
| CCATGTGATTTGTTCCTTGGCTCTTCCACTCTCTAGCTCCCGGAGTCACCTAGTGCAG | 30700 fluorescence intensity (a.u.) |
| TAATTAAGATAATTTCTTCGGGCAATTTATTTAACCAATTCGGAGTCACCTAGTGCAG | 3900 fluorescence intensity (a.u.) |
| TATTAAGAATTAGATTAGGATTAGGATTGTGTCAATGTTCCGGAGTCACCTAGTGCAG | 4860 fluorescence intensity (a.u.) |
| TCCATTGATTGAGGAATAGTGCCAGCTTTAGATTTGCTCCCGGAGTCACCTAGTGCAG | 53400 fluorescence intensity (a.u.) |
| GCATTCTTGATAGACAGCTGAACAACTGGACTATCCAGTGCGGAGTCACCTAGTGCAG | 14100 fluorescence intensity (a.u.) |
| ATCTTAAACTTCGTAAACTGGGATTTTCAGAAGCACTGTGCGGAGTCACCTAGTGCAG | 3350 fluorescence intensity (a.u.) |
| ATCAAATTGTTTGCTAGTGCCTCAACCTTCGTATACGAGACGGAGTCACCTAGTGCAG | 4430 fluorescence intensity (a.u.) |
| GCACAAACGTGATAAAATTGATTGGAAAATCATTTGCAACCGGAGTCACCTAGTGCAG | 41700 fluorescence intensity (a.u.) |
| GAATTATATTTGATTGAGGAAGTCAAACTACACCTTTTCCCGGAGTCACCTAGTGCAG | 28600 fluorescence intensity (a.u.) |
| TTATATTGATTTTCGTATGATTTTGGACACATAAGTACCTCGGAGTCACCTAGTGCAG | 38200 fluorescence intensity (a.u.) |
| ATAATTGGCAAGCGGACTGTGAGAACTGGAAAGGGATTCGCGGAGTCACCTAGTGCAG | 33500 fluorescence intensity (a.u.) |
| TTAATTCCGAATTCCAATTATTTCTAGATTATATTCCTACCGGAGTCACCTAGTGCAG | 4820 fluorescence intensity (a.u.) |
| GACATGAATCACGTTGACTGCACAATTTATTTCTTTGTTCCGGAGTCACCTAGTGCAG | 7350 fluorescence intensity (a.u.) |
| AAGTACATTGATTAACACATATTCTACCAGTTTATATTGACGGAGTCACCTAGTGCAG | 23700 fluorescence intensity (a.u.) |

| Sequence | binding signal |
| --- | --- |
| ATATATATATATATATATATATATATATATATATATGTGGCGGAGTCACCTAGTGCAG | 13800 fluorescence intensity (a.u.) |
| GTCTTCTGTTCTCAATTATCAATTTTGCTATAGCTCACTCCGGAGTCACCTAGTGCAG | 10500 fluorescence intensity (a.u.) |
| CAATATTCAATTATGGATTTAATTAACTAATTTAATGTTACGGAGTCACCTAGTGCAG | 32700 fluorescence intensity (a.u.) |
| CCCATCATTTTGTTCTTGACAGATATACAAATAAGATGAGCGGAGTCACCTAGTGCAG | 7430 fluorescence intensity (a.u.) |
| TCTTAAATTTACACATCTAAAGTTTATACACCTAGAGTTTCGGAGTCACCTAGTGCAG | 10400 fluorescence intensity (a.u.) |
| CACTGACGAGAGATTTGAAATGCTAGATCAAACTCATCGACGGAGTCACCTAGTGCAG | 8480 fluorescence intensity (a.u.) |
| CATAGATTATTATATTACGAGACGGATGGAGTACATCATCCGGAGTCACCTAGTGCAG | 3150 fluorescence intensity (a.u.) |
| TTTGATGGAGTGAAAAGAACAAATTAATAACCATTAAGCCCGGAGTCACCTAGTGCAG | 14000 fluorescence intensity (a.u.) |
| GGAGGCTGATTAACCGGTAAGTAGAATCCTACTATTGTATCGGAGTCACCTAGTGCAG | 8000 fluorescence intensity (a.u.) |
| AATAATTAACATATATGTGCATGCATGTCTATGTGCACGCCGGAGTCACCTAGTGCAG | 31500 fluorescence intensity (a.u.) |
| TTGCTGACTGGAAAGATACTCACTACACACTGCATCTCTACGGAGTCACCTAGTGCAG | 7630 fluorescence intensity (a.u.) |
| AATGAATTTAGATAGATATATATGTATAGATTCATTCATACGGAGTCACCTAGTGCAG | 4710 fluorescence intensity (a.u.) |
| TCTGTAATCACATCAGTCCTTTCTGTCGCGTAGTACGCCTCGGAGTCACCTAGTGCAG | 4130 fluorescence intensity (a.u.) |
| ATTTAATAATGTTGTTAACTTGCCAAAATTTTAGCATTACCGGAGTCACCTAGTGCAG | 5980 fluorescence intensity (a.u.) |
| GGGAAATCATTTCCCTAACTCATTAGCCAAACAAGACCTTCGGAGTCACCTAGTGCAG | 3570 fluorescence intensity (a.u.) |
| AAAATTTACGTAATTATAATTTATTTTGTTATGAGTTGTTCGGAGTCACCTAGTGCAG | 37800 fluorescence intensity (a.u.) |
| AATATTATAATCTAAATTTGTGAGAGATCGAATCACACAACGGAGTCACCTAGTGCAG | 3170 fluorescence intensity (a.u.) |
| AATCATTGATTTATATGAGAAGCCGCAAATAACTAGACACCGGAGTCACCTAGTGCAG | 27100 fluorescence intensity (a.u.) |
| GATTTAAGTAATTATTAATTCTGTTACTATCATTTGATTCCGGAGTCACCTAGTGCAG | 10800 fluorescence intensity (a.u.) |
| CATGATAGACGAAGCTGATCTTTGGAGGCTGGCTAGGGCTCGGAGTCACCTAGTGCAG | 30800 fluorescence intensity (a.u.) |
| TTGCAATTAGCCTTTGACTGCTTCTTCTTCTTCCACTTGCCGGAGTCACCTAGTGCAG | 16600 fluorescence intensity (a.u.) |
